{"source": "the supplement of paper PMC8728848", "assay_in_all_cases": "glycan array binding signal (z-score within array); higher = stronger binding", "conditions_in_all_cases": "glycan notation: IUPAC condensed, linker removed", "key": {"[1]": {"target": "Fuc(a1-2)[GalNAc(b1-3)]Gal", "in_short": "(§1)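 Glycan array binding is given as a within-array Z-score, which can be read as non-binding when negative. The arrays, 3228 of them, came from the Consortium for Functional Glycomics database and were retained only where the protein sequence was available. Z-scores were averaged across arrays of the same protein sequence at different concentrations or buffers and across linkers.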"}, "[2]": {"target": "Fuc(a1-3)GlcNAc", "in_short": "as §1"}, "[3]": {"target": "Fuc(a1-3)[Gal(b1-4)]Glc6S", "in_short": "as §1"}, "[4]": {"target": "Fuc(a1-3)[Gal(b1-4)]GlcNAc", "in_short": "as §1"}, "[5]": {"target": "Fuc(a1-3)[Gal(b1-4)]GlcNAc(b1-2)Man", "in_short": "as §1"}, "[6]": {"target": "Fuc(a1-3)[Gal(b1-4)]GlcNAc(b1-2)Man(a1-3)[Fuc(a1-3)[Gal(b1-4)]GlcNAc(b1-2)Man(a1-6)]Man(b1-4)GlcNAc(b1-4)GlcNAc", "in_short": "as §1"}, "[7]": {"target": "Fuc(a1-3)[Gal(b1-4)]GlcNAc(b1-2)Man(a1-3)[Fuc(a1-3)[Gal(b1-4)]GlcNAc(b1-2)Man(a1-6)]Man(b1-4)GlcNAc(b1-4)[Fuc(a1-6)]GlcNAc", "in_short": "as §1"}, "[8]": {"target": "Fuc(a1-3)[Gal(b1-4)]GlcNAc(b1-3)Gal(b1-3)[Fuc(a1-4)]GlcNAc", "in_short": "as §1"}, "[9]": {"target": "Fuc(a1-3)[Gal(b1-4)]GlcNAc(b1-3)Gal(b1-4)[Fuc(a1-3)]GlcNAc", "in_short": "as §1"}, "[10]": {"target": "Fuc(a1-3)[Gal(b1-4)]GlcNAc(b1-3)Gal(b1-4)[Fuc(a1-3)]GlcNAc(b1-3)Gal(b1-4)[Fuc(a1-3)]GlcNAc", "in_short": "as §1"}, "[11]": {"target": "Fuc(a1-3)[Gal(b1-4)]GlcNAc(b1-3)GalNAc", "in_short": "as §1"}, "[12]": {"target": "Fuc(a1-3)[Gal(b1-4)]GlcNAc(b1-4)Gal(b1-4)[Fuc(a1-3)]GlcNAc", "in_short": "as §1"}, "[13]": {"target": "Fuc(a1-3)[Gal(b1-4)]GlcNAc(b1-4)Gal(b1-4)[Fuc(a1-3)]GlcNAc(b1-4)Gal(b1-4)[Fuc(a1-3)]GlcNAc", "in_short": "as §1"}, "[14]": {"target": "Fuc(a1-3)[Gal(b1-4)]GlcNAc(b1-6)GalNAc", "in_short": "as §1"}, "[15]": {"target": "Fuc(a1-3)[Gal(b1-4)]GlcNAc(b1-6)[Gal(b1-3)GlcNAc(b1-3)]Gal(b1-4)Glc", "in_short": "as §1"}, "[16]": {"target": "Fuc(a1-3)[Gal(b1-4)]GlcNAc6S", "in_short": "as §1"}, "[17]": {"target": "Fuc(a1-3)[Gal3S(b1-4)]Glc", "in_short": "as §1"}, "[18]": {"target": "Fuc(a1-3)[Gal3S(b1-4)]GlcNAc", "in_short": "as §1"}, "[19]": {"target": "Fuc(a1-3)[Gal3S(b1-4)]GlcNAc6S", "in_short": "as §1"}, "[20]": {"target": "Fuc(a1-3)[GalNAc(b1-4)]GlcNAc", "in_short": "as §1"}, "[21]": {"target": "Fuc(a1-3)[GalNAc(b1-4)]GlcNAc6S", "in_short": "as §1"}, "[22]": {"target": "Fuc(a1-4)GlcNAc", "in_short": "as §1"}, "[23]": {"target": "Fuc(b1-3)GlcNAc", "in_short": "as §1"}, "[24]": {"target": "Gal(a1-2)Gal", "in_short": "as §1"}, "[25]": {"target": "Gal(a1-3)Gal", "in_short": "as §1"}, "[26]": {"target": "Gal(a1-3)Gal(b1-3)GlcNAc", "in_short": "as §1"}, "[27]": {"target": "Gal(a1-3)Gal(b1-3)GlcNAc(b1-2)Man", "in_short": "as §1"}, "[28]": {"target": "Gal(a1-3)Gal(b1-3)GlcNAc(b1-2)Man(a1-3)[Gal(a1-3)Gal(b1-3)GlcNAc(b1-2)Man(a1-6)]Man(b1-4)GlcNAc(b1-4)GlcNAc", "in_short": "as §1"}, "[29]": {"target": "Gal(a1-3)Gal(b1-3)GlcNAc(b1-3)GalNAc", "in_short": "as §1"}, "[30]": {"target": "Gal(a1-3)Gal(b1-3)GlcNAc(b1-6)GalNAc", "in_short": "as §1"}, "[31]": {"target": "Gal(a1-3)Gal(b1-3)[Fuc(a1-4)]GlcNAc(b1-2)Man(a1-3)[Gal(a1-3)Gal(b1-3)[Fuc(a1-4)]GlcNAc(b1-2)Man(a1-6)]Man(b1-4)GlcNAc(b1-4)GlcNAc", "in_short": "as §1"}, "[32]": {"target": "Gal(a1-3)Gal(b1-4)Glc", "in_short": "as §1"}, "[33]": {"target": "Gal(a1-3)Gal(b1-4)GlcNAc", "in_short": "as §1"}, "[34]": {"target": "Gal(a1-3)Gal(b1-4)GlcNAc(b1-2)Man", "in_short": "as §1"}, "[35]": {"target": "Gal(a1-3)Gal(b1-4)GlcNAc(b1-2)Man(a1-3)[Gal(a1-3)Gal(b1-4)GlcNAc(b1-2)Man(a1-6)]Man(b1-4)GlcNAc(b1-4)GlcNAc", "in_short": "as §1"}, "[36]": {"target": "Gal(a1-3)Gal(b1-4)GlcNAc(b1-3)GalNAc", "in_short": "as §1"}, "[37]": {"target": "Gal(a1-3)Gal(b1-4)GlcNAc(b1-6)GalNAc", "in_short": "as §1"}, "[38]": {"target": "Gal(a1-3)Gal(b1-4)[Fuc(a1-3)]GlcNAc", "in_short": "as §1"}, "[39]": {"target": "Gal(a1-3)Gal(b1-4)[Fuc(a1-3)]GlcNAc(b1-2)Man(a1-3)[Gal(a1-3)Gal(b1-4)[Fuc(a1-3)]GlcNAc(b1-2)Man(a1-6)]Man(b1-4)GlcNAc(b1-4)GlcNAc", "in_short": "as §1"}, "[40]": {"target": "Gal(a1-3)GalNAc", "in_short": "as §1"}, "[41]": {"target": "Gal(a1-3)[Gal(a1-4)]Gal(b1-4)GlcNAc", "in_short": "as §1"}, "[42]": {"target": "Gal(a1-4)Gal(b1-3)GlcNAc(b1-2)Man(a1-3)[Gal(a1-4)Gal(b1-3)GlcNAc(b1-2)Man(a1-6)]Man(b1-4)GlcNAc(b1-4)GlcNAc", "in_short": "as §1"}, "[43]": {"target": "Gal(a1-4)Gal(b1-4)Glc", "in_short": "as §1"}, "[44]": {"target": "Gal(a1-4)Gal(b1-4)GlcNAc", "in_short": "as §1"}, "[45]": {"target": "Gal(a1-4)Gal(b1-4)GlcNAc(b1-2)Man(a1-3)[Gal(a1-4)Gal(b1-4)GlcNAc(b1-2)Man(a1-6)]Man(b1-4)GlcNAc(b1-4)GlcNAc", "in_short": "as §1"}}, "note": "The other results are listed elsewhere or left out.", "data": [{"binder": "rMpL (Macrolepiota procera) (protein) MSTQVSSGRTYKITNVIAGTVIDLSGEDNKSIIGYPYHSGKNQQWTFNWTGKAWTLRSASSGSYLGIEGTPAGGTRLVAVNDPFEWHIWRDEANENAFRIFVPFTNYNLDLSGYGDTTPGTPVQLWWTWEGLHQTWTIDRP", "values": [{"measurement": "glycan array binding signal (z-score)", "setting": "[1]", "result": -0.142}, {"measurement": "glycan array binding signal (z-score)", "setting": "[2]", "result": -0.378}, {"measurement": "glycan array binding signal (z-score)", "setting": "[3]", "result": -0.19}, {"measurement": "glycan array binding signal (z-score)", "setting": "[4]", "result": -0.362}, {"measurement": "glycan array binding signal (z-score)", "setting": "[5]", "result": -0.35}, {"measurement": "glycan array binding signal (z-score)", "setting": "[6]", "result": -0.285}, {"measurement": "glycan array binding signal (z-score)", "setting": "[7]", "result": -0.118}, {"measurement": "glycan array binding signal (z-score)", "setting": "[8]", "result": -0.253}, {"measurement": "glycan array binding signal (z-score)", "setting": "[9]", "result": -0.251}, {"measurement": "glycan array binding signal (z-score)", "setting": "[10]", "result": -0.37}, {"measurement": "glycan array binding signal (z-score)", "setting": "[11]", "result": -0.234}, {"measurement": "glycan array binding signal (z-score)", "setting": "[12]", "result": -0.279}, {"measurement": "glycan array binding signal (z-score)", "setting": "[13]", "result": -0.245}, {"measurement": "glycan array binding signal (z-score)", "setting": "[14]", "result": -0.065}, {"measurement": "glycan array binding signal (z-score)", "setting": "[15]", "result": 0.552}, {"measurement": "glycan array binding signal (z-score)", "setting": "[16]", "result": -0.172}, {"measurement": "glycan array binding signal (z-score)", "setting": "[17]", "result": -0.26}, {"measurement": "glycan array binding signal (z-score)", "setting": "[18]", "result": -0.253}, {"measurement": "glycan array binding signal (z-score)", "setting": "[19]", "result": -0.311}, {"measurement": "glycan array binding signal (z-score)", "setting": "[20]", "result": -0.26}, {"measurement": "glycan array binding signal (z-score)", "setting": "[21]", "result": -0.375}, {"measurement": "glycan array binding signal (z-score)", "setting": "[22]", "result": -0.316}, {"measurement": "glycan array binding signal (z-score)", "setting": "[23]", "result": -0.333}, {"measurement": "glycan array binding signal (z-score)", "setting": "[24]", "result": -0.277}, {"measurement": "glycan array binding signal (z-score)", "setting": "[25]", "result": -0.212}, {"measurement": "glycan array binding signal (z-score)", "setting": "[26]", "result": -0.121}, {"measurement": "glycan array binding signal (z-score)", "setting": "[27]", "result": -0.233}, {"measurement": "glycan array binding signal (z-score)", "setting": "[28]", "result": -0.203}, {"measurement": "glycan array binding signal (z-score)", "setting": "[29]", "result": -0.292}, {"measurement": "glycan array binding signal (z-score)", "setting": "[30]", "result": -0.297}, {"measurement": "glycan array binding signal (z-score)", "setting": "[31]", "result": -0.131}, {"measurement": "glycan array binding signal (z-score)", "setting": "[32]", "result": -0.194}, {"measurement": "glycan array binding signal (z-score)", "setting": "[33]", "result": -0.311}, {"measurement": "glycan array binding signal (z-score)", "setting": "[34]", "result": -0.39}, {"measurement": "glycan array binding signal (z-score)", "setting": "[35]", "result": -0.031}, {"measurement": "glycan array binding signal (z-score)", "setting": "[36]", "result": -0.326}, {"measurement": "glycan array binding signal (z-score)", "setting": "[37]", "result": -0.27}, {"measurement": "glycan array binding signal (z-score)", "setting": "[38]", "result": -0.328}, {"measurement": "glycan array binding signal (z-score)", "setting": "[39]", "result": -0.104}, {"measurement": "glycan array binding signal (z-score)", "setting": "[40]", "result": -0.328}, {"measurement": "glycan array binding signal (z-score)", "setting": "[41]", "result": -0.235}, {"measurement": "glycan array binding signal (z-score)", "setting": "[42]", "result": -0.165}, {"measurement": "glycan array binding signal (z-score)", "setting": "[43]", "result": -0.271}, {"measurement": "glycan array binding signal (z-score)", "setting": "[44]", "result": -0.406}, {"measurement": "glycan array binding signal (z-score)", "setting": "[45]", "result": 0.109}]}]}
